# According to the supplement of paper PMC8728848:
# This is one part of the list.
# Tests used:
# Assay in all cases: glycan array binding signal (z-score within array); higher = stronger binding
# Conditions in all cases: glycan notation: IUPAC condensed, linker removed
# [1] = biological target: Neu5Ac(a2-3)Gal(b1-3)GlcNAc(b1-6)GalNAc
# Outline: (§1)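 The Consortium for Functional Glycomics database supplied 3228 glycan arrays, of which those lacking an available protein sequence were dropped. The binding signal, a within-array Z-score, was averaged across arrays of the same protein sequence and across linkers. Negative scores can be read as non-binding.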
# [2] = biological target: Neu5Ac(a2-3)Gal(b1-3)GlcNAc6S
# Outline: as §1
# [3] = biological target: Neu5Ac(a2-3)Gal(b1-3)[Fuc(a1-4)]GlcNAc
# Outline: as §1
# [4] = biological target: Neu5Ac(a2-3)Gal(b1-3)[Fuc(a1-4)]GlcNAc(b1-3)Gal(b1-3)[Fuc(a1-4)]GlcNAc
# Outline: as §1
# [5] = biological target: Neu5Ac(a2-3)Gal(b1-3)[Fuc(a1-4)]GlcNAc(b1-3)Gal(b1-4)[Fuc(a1-3)]GlcNAc
# Outline: as §1
# [6] = biological target: Neu5Ac(a2-3)Gal(b1-3)[GlcNAc(b1-6)]GalNAc
# Outline: as §1
# [7] = biological target: Neu5Ac(a2-3)Gal(b1-3)[Neu5Ac(a2-6)]GalNAc
# Outline: as §1
# [8] = biological target: Neu5Ac(a2-3)Gal(b1-3)[Neu5Ac(a2-6)]GlcNAc(b1-3)[Fuc(a1-3)[Gal(b1-4)]GlcNAc(b1-6)]Gal(b1-4)Glc
# Outline: as §1
# [9] = biological target: Neu5Ac(a2-3)Gal(b1-3)]Neu5Ac(a2-3)Gal(b1-4)]GlcNAc
# Outline: as §1
# [10] = biological target: Neu5Ac(a2-3)Gal(b1-4)Glc
# Outline: as §1
# [11] = biological target: Neu5Ac(a2-3)Gal(b1-4)GlcNAc
# Outline: as §1
# [12] = biological target: Neu5Ac(a2-3)Gal(b1-4)GlcNAc(b1-2)Man
# Outline: as §1
# [13] = biological target: Neu5Ac(a2-3)Gal(b1-4)GlcNAc(b1-2)Man(a1-3)[GlcNAc(b1-4)][Neu5Ac(a2-3)Gal(b1-4)GlcNAc(b1-2)Man(a1-6)]Man(b1-4)GlcNAc(b1-4)GlcNAc
# Outline: as §1
# [14] = biological target: Neu5Ac(a2-3)Gal(b1-4)GlcNAc(b1-2)Man(a1-3)[Neu5Ac(a2-3)Gal(b1-4)GlcNAc(b1-2)Man(a1-6)]Man(b1-4)GlcNAc(b1-4)GlcNAc
# Outline: as §1
# [15] = biological target: Neu5Ac(a2-3)Gal(b1-4)GlcNAc(b1-2)Man(a1-3)[Neu5Ac(a2-3)Gal(b1-4)GlcNAc(b1-2)Man(a1-6)]Man(b1-4)GlcNAc(b1-4)[Fuc(a1-6)]GlcNAc
# Outline: as §1
# [16] = biological target: Neu5Ac(a2-3)Gal(b1-4)GlcNAc(b1-2)Man(a1-3)[Neu5Ac(a2-6)Gal(b1-4)GlcNAc(b1-2)Man(a1-6)]Man(b1-4)GlcNAc(b1-4)GlcNAc
# Outline: as §1
# [17] = biological target: Neu5Ac(a2-3)Gal(b1-4)GlcNAc(b1-2)[Neu5Ac(a2-3)Gal(b1-4)GlcNAc(b1-4)]Man(a1-3)[GlcNAc(b1-4)][Neu5Ac(a2-3)Gal(b1-4)GlcNAc(b1-2)[Neu5Ac(a2-3)Gal(b1-4)GlcNAc(b1-6)]Man(a1-6)]Man(b1-4)GlcNAc(b1-4)GlcNAc
# Outline: as §1
# [18] = biological target: Neu5Ac(a2-3)Gal(b1-4)GlcNAc(b1-2)[Neu5Ac(a2-3)Gal(b1-4)GlcNAc(b1-4)]Man(a1-3)[GlcNAc(b1-4)][Neu5Ac(a2-3)Gal(b1-4)GlcNAc(b1-4)Man(a1-6)]Man(b1-4)GlcNAc(b1-4)GlcNAc
# Outline: as §1
# [19] = biological target: Neu5Ac(a2-3)Gal(b1-4)GlcNAc(b1-2)[Neu5Ac(a2-3)Gal(b1-4)GlcNAc(b1-6)]Man(a1-6)[Neu5Ac(a2-3)Gal(b1-4)GlcNAc(b1-2)Man(a1-3)][GlcNAc(b1-4)]Man(b1-4)GlcNAc(b1-4)GlcNAc
# Outline: as §1
# [20] = biological target: Neu5Ac(a2-3)Gal(b1-4)GlcNAc(b1-3)Gal
# Outline: as §1
# [21] = biological target: Neu5Ac(a2-3)Gal(b1-4)GlcNAc(b1-3)Gal(b1-3)GlcNAc
# Outline: as §1
# [22] = biological target: Neu5Ac(a2-3)Gal(b1-4)GlcNAc(b1-3)Gal(b1-4)GlcNAc
# Outline: as §1
# [23] = biological target: Neu5Ac(a2-3)Gal(b1-4)GlcNAc(b1-3)Gal(b1-4)GlcNAc(b1-2)Man(a1-3)[Neu5Ac(a2-3)Gal(b1-4)GlcNAc(b1-3)Gal(b1-4)GlcNAc(b1-2)Man(a1-6)]Man(b1-4)GlcNAc(b1-4)GlcNAc
# Outline: as §1
# [24] = biological target: Neu5Ac(a2-3)Gal(b1-4)GlcNAc(b1-3)Gal(b1-4)GlcNAc(b1-3)Gal(b1-4)GlcNAc
# Outline: as §1
# [25] = biological target: Neu5Ac(a2-3)Gal(b1-4)GlcNAc(b1-3)Gal(b1-4)GlcNAc(b1-3)Gal(b1-4)GlcNAc(b1-2)Man(a1-3)[Neu5Ac(a2-3)Gal(b1-4)GlcNAc(b1-3)Gal(b1-4)GlcNAc(b1-3)Gal(b1-4)GlcNAc(b1-2)Man(a1-6)]GalNAc
# Outline: as §1
# [26] = biological target: Neu5Ac(a2-3)Gal(b1-4)GlcNAc(b1-3)Gal(b1-4)GlcNAc(b1-3)GalNAc
# Outline: as §1
# [27] = biological target: Neu5Ac(a2-3)Gal(b1-4)GlcNAc(b1-3)Gal(b1-4)GlcNAc(b1-3)[Neu5Ac(a2-3)Gal(b1-4)GlcNAc(b1-3)Gal(b1-4)GlcNAc(b1-6)]GalNAc
# Outline: as §1
# [28] = biological target: Neu5Ac(a2-3)Gal(b1-4)GlcNAc(b1-3)Gal(b1-4)GlcNAc(b1-6)[Gal(b1-3)]GalNAc
# Outline: as §1
# [29] = biological target: Neu5Ac(a2-3)Gal(b1-4)GlcNAc(b1-3)Gal(b1-4)[Fuc(a1-3)]GlcNAc
# Outline: as §1
# [30] = biological target: Neu5Ac(a2-3)Gal(b1-4)GlcNAc(b1-3)GalNAc
# Outline: as §1
# [31] = biological target: Neu5Ac(a2-3)Gal(b1-4)GlcNAc(b1-3)[Neu5Ac(a2-3)Gal(b1-4)GlcNAc(b1-6)]GalNAc
# Outline: as §1
# [32] = biological target: Neu5Ac(a2-3)Gal(b1-4)GlcNAc(b1-6)GalNAc
# Outline: as §1
# [33] = biological target: Neu5Ac(a2-3)Gal(b1-4)GlcNAc(b1-6)[Gal(b1-3)]GalNAc
# Outline: as §1
# [34] = biological target: Neu5Ac(a2-3)Gal(b1-4)GlcNAc(b1-6)[Neu5Ac(a2-3)Gal(b1-3)]GalNAc
# Outline: as §1
# [35] = biological target: Neu5Ac(a2-3)Gal(b1-4)GlcNAc6S
# Outline: as §1
# [36] = biological target: Neu5Ac(a2-3)Gal(b1-4)[Fuc(a1-3)]GlcNAc
# Outline: as §1
# [37] = biological target: Neu5Ac(a2-3)Gal(b1-4)[Fuc(a1-3)]GlcNAc(b1-2)Man
# Outline: as §1
# [38] = biological target: Neu5Ac(a2-3)Gal(b1-4)[Fuc(a1-3)]GlcNAc(b1-3)Gal
# Outline: as §1
# [39] = biological target: Neu5Ac(a2-3)Gal(b1-4)[Fuc(a1-3)]GlcNAc(b1-3)Gal(b1-4)GlcNAc
# Outline: as §1
# [40] = biological target: Neu5Ac(a2-3)Gal(b1-4)[Fuc(a1-3)]GlcNAc(b1-3)Gal(b1-4)[Fuc(a1-3)]GlcNAc(b1-3)Gal(b1-4)[Fuc(a1-3)]GlcNAc
# Outline: as §1
# [41] = biological target: Neu5Ac(a2-3)Gal(b1-4)[Fuc(a1-3)]GlcNAc(b1-3)GalNAc
# Outline: as §1
# [42] = biological target: Neu5Ac(a2-3)Gal(b1-4)[Fuc(a1-3)]GlcNAc(b1-6)[Gal(b1-3)]GalNAc
# Outline: as §1
# [43] = biological target: Neu5Ac(a2-3)Gal(b1-4)[Fuc(a1-3)]GlcNAc(b1-6)[Neu5Ac(a2-3)Gal(b1-3)]GalNAc
# Outline: as §1
# [44] = biological target: Neu5Ac(a2-3)Gal(b1-4)[Fuc(a1-3)]GlcNAc6S
# Outline: as §1
# [45] = biological target: Neu5Ac(a2-3)Gal6S(b1-4)GlcNAc
# Outline: as §1
binder,measurement,setting,value
CTAEGIKKFEGDGYELFKDNFPAGEKFDNDDTNDQFYTVIF [MUB40 (Lactobacillus reuteri)],glycan array binding signal (z-score),[1],-0.351
same,glycan array binding signal (z-score),[2],-0.471
same,glycan array binding signal (z-score),[3],-0.554
same,glycan array binding signal (z-score),[4],0.452
same,glycan array binding signal (z-score),[5],0.023
same,glycan array binding signal (z-score),[6],1.11
same,glycan array binding signal (z-score),[7],-0.157
same,glycan array binding signal (z-score),[8],-0.114
same,glycan array binding signal (z-score),[9],-0.307
same,glycan array binding signal (z-score),[10],-0.426
same,glycan array binding signal (z-score),[11],-0.366
same,glycan array binding signal (z-score),[12],-0.206
same,glycan array binding signal (z-score),[13],-0.511
same,glycan array binding signal (z-score),[14],-0.479
same,glycan array binding signal (z-score),[15],-0.593
same,glycan array binding signal (z-score),[16],-0.389
same,glycan array binding signal (z-score),[17],-0.441
same,glycan array binding signal (z-score),[18],-0.142
same,glycan array binding signal (z-score),[19],-0.11
same,glycan array binding signal (z-score),[20],0.391
same,glycan array binding signal (z-score),[21],-0.406
same,glycan array binding signal (z-score),[22],-0.435
same,glycan array binding signal (z-score),[23],-0.348
same,glycan array binding signal (z-score),[24],1.72
same,glycan array binding signal (z-score),[25],-0.149
same,glycan array binding signal (z-score),[26],-0.41
same,glycan array binding signal (z-score),[27],-0.286
same,glycan array binding signal (z-score),[28],-0.508
same,glycan array binding signal (z-score),[29],-0.502
same,glycan array binding signal (z-score),[30],-0.032
same,glycan array binding signal (z-score),[31],-0.685
same,glycan array binding signal (z-score),[32],1.97
same,glycan array binding signal (z-score),[33],-0.296
same,glycan array binding signal (z-score),[34],-0.387
same,glycan array binding signal (z-score),[35],0.385
same,glycan array binding signal (z-score),[36],0.162
same,glycan array binding signal (z-score),[37],-0.305
same,glycan array binding signal (z-score),[38],-0.419
same,glycan array binding signal (z-score),[39],-0.046
same,glycan array binding signal (z-score),[40],0.097
same,glycan array binding signal (z-score),[41],0.351
same,glycan array binding signal (z-score),[42],-0.508
same,glycan array binding signal (z-score),[43],-0.58
same,glycan array binding signal (z-score),[44],-0.439
same,glycan array binding signal (z-score),[45],-0.048
